Consider 1 molecule from article PMC6322289 (2019).

This assay addresses β-1,3-glucanase (Hevea brasiliensis (endogenous in latex …, UniProt P52407 37-356)). The experiment in a line: SPR.
Sequence of UniProt P52407 (P52407 37-356): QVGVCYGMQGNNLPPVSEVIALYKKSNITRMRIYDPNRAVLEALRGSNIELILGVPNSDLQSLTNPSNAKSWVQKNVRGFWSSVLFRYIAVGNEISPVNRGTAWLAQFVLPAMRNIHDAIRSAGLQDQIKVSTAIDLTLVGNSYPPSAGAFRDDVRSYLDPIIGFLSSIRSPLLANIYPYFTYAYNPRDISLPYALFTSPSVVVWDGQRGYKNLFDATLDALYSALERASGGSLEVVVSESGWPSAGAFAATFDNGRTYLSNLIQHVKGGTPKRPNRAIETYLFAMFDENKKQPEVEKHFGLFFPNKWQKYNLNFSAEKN

B1: chitinase (enzyme)
chain: GGIAIYWGQNGNEGTLTQTCSTRKYSYVNIAFLNKFGNGQTPQINLAGHCNPAAGGCTIVSNGIRSCQIQGIKVMLSLGGGIGSYTLASQADAKNVADYLWNNFLGGKSSSRPLGDAVLDGIDFDIEHGSTLYWDDLARYLSAYSKQGKKVYLTAAPQCPFPDRYLGTALNTGLFDYVWVQFYNNPPCQYSSGNINNIINSWNRWTTSINAGKIFLGLPAAPEAAGSGYVPPDVLISRILPEIKKSPKYGGVMLWSKFYDDKNGYSSSILDSV
modifications: native protein purified from lutoid B-serum; the paper does not name the family member. Hevamine-A is assumed as the major lutoid chitinase (about 29 kDa, seen as a 26 kDa band); mature limits are from the CHAIN feature; disulfides as in the native protein
Molecule B1 returned a koff of 0.0147 s⁻¹.
